These results are taken from the RNAGym collection of RNA variant scans (doi:10.1073/pnas.2313332121).

Sequences and labels used below:
B1: TPR 5TU (parent)
chain: GGAUCUUCUCGAUCUAACAAAAAAGACAAAUCUGCCACAAAGCUUGAGAGCAUCUUCGGAUGCAGAGGCGGCAGCCUUCGGUGGCGCGAUAGCGCCAACGUUCUCAACUAUGACACGCAAAACGCGUGCUCCGUUGAAUGGAGUUUAUCAUG

Variants at the background level are over-represented here.

The variants in the data set derive from B1. The data set can be described thus: polymerase ribozyme fitness, log enrichment relative to wild type (log ratio); higher = more active; in vitro selection for triplet polymerase activity. In a few lines: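 A heterodimeric triplet polymerase ribozyme had each of its subunits mutagenized by PCR into a library, which was transcribed. One round of in vitro selection, done in triplicate, annealed each library with a biotinylated primer, its partner subunit and triplets, then incubated it frozen at −7 °C before gel excision of extended constructs, streptavidin-bead capture and RT-PCR. Fitness is the logarithm of genotype enrichment relative to wild-type enrichment, based on Illumina sequencing of inputs and outputs and inverse-variance-weighted replicate averages. A base-2 logarithm is used, and genotypes were kept only with ≥10 input reads and ≥1 read per output.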
In the case of GGAUCUUCUCGAUCUAACAAAAAAGACACAUCUGCCACAAAGCUUGAGGGCAUCUUCGGAUGCAGAGGCGGCAGCCCUCGGUGGGGCGAUAGCGCCAACGUUCUCAACUAUGACACGCAAAACGCGUGCUCCGUUGAAUGGAGUUUAUCAUG [A29C A49G U77C C85G], the “polymerase ribozyme fitness (log ratio)” value is at most -4.2.
For GGAUCUUCUCGAUCUAACAAAAAAGACACAUCUGCCACAACGCUUUAGAGCAUCUUCGGAUGCAGAGUCGGCAGCCUUCGGUGGUGAGAUAGCGCCAACGUUCUCAUCUAUGACACGCAAAACGCGUGCUCCGUUGAAUGGAGUUUAUCAUG [A29C A41C G46U G68U C85U C87A A107U] the value was at most -4.2.
For GGAUCUUCUCGAUCUAACAAAAAAGACACAUCUGCCCCAAAGCUUGAGAGCAUCUUCGGUUGCAGAGGCGGCAGCCUUCGGUGGAGCGAUAGCGCCAACGUUCUCAACUAUGACACACAAAACGCGUGCUCCUUUGAAUGGAGUUUAUCAUG [A29C A37C A60U C85A G117A G133U] the value was at most -4.2; for GGAUCUUCUCGAUCUAACAAAAAAGACACCUCUGCCACAAAGCUUGAGAGCAUCUUCGGAUGCAAAGGCGGCAGCCUUCGGUGGCGCGAUAGUGCCAACGUUCUCAACUAUGACACGCAAAACGCGUGCUCCGUUGAAUGGAGUUUAUCAUG [A29C A30C G65A C93U], at most -4.2; for GGAUCUUCUCGAUCUAACAAAAAAGACACAUCUGCCACAAAGCUUGAGAGCUACUGGGGAUGCAGAGGCGGCAGCCUUCGGUGGCGCGAUAGCGCCAACGUUCUCAACUAUGACACGCAAAACGCGUGCUCCGUUGAAUGGCGUUUAUCAUG [A29C A52U U53A U56G C57G A142C], at most -4.2.
With GGAUCUUCUCGAUCUAACAAAAAAGACACAUCUGCCACAAAGCUUGAGCGCAUCUUGGGAUGCAGAGGCGGCAGCCUUCGGUGGCGCGAUAGCGCCAACGUUCUCAACUAUGACACGCAAAACGCGUGCUCUGUUGAAUGGAGUUUAUCAUG [A29C A49C C57G C132U] the figure was at most -4.2; with GGAUCUUCUCGAUCUAACAAAAAAGACACUUCUGCCACAAAGCUUGAGAGCAUCUUCGGAUGCAGAGGCGGCAGCCUUCGGUGGCGCGAUAGCGCCUACGUUUUCAACUAUGACAGGCAAAACGCGUGCUCCAUUGAAUGGAGUUUAUCAUG [A29C A30U A97U C103U C116G G133A], at most -4.2.
Turning to GGAUCUUCUCGAUCUAACAAAAAAGACUAAUCUGCCACAAAGCUUGAGAUCAUCUUCGAAUGCAGAGGCGGCAGCCUUCGGUGGCGCGAUAGCGCCAACGUUCUCAACUAUGACACGCAAAACGCGUGCUCCGUUGAAUGGAGUUUAUCAUG [A28U G50U G59A], the “polymerase ribozyme fitness (log ratio)” value is at most -4.2.
For GGAUCUUCUCGAUCUAACAAAAAAGACUAAUCUGCCACAAAGCUUGAGAGCAACUUCGGAUGCAGAGGCGGCAGCCCUCCGUGGCGCGAUAGCGCCAACGUUCUCAACUAUGACACGCAGAACGCGUGCUCCGUUGAAUGGAGUUUAUCAGG [A28U U53A U77C G80C A120G U151G] the value was at most -4.2; for GGAUCUUCUCGAUCUAACAAAAAAGACUAAUCUGCCACAAAGCUUGAGAGCAUCUUCGGAUUCAGAGACGGCAGCCUUCCGUAGCGCGAUAGCGCCAACGUUCUCAACUAUGACACGCAAAACGCGUGCUCCGUUGAAUGGAGUUUAUCAUG [A28U G62U G68A G80C G83A], at most -4.2.
With GGAUCUUCUCGAUCUAACAAAAAAGACUAAUCUGCCACAAAGCUUGAGAGCAUCUUCAGAUGCAGAGGCGGCAGCCUUCGGUGGCGCGAUAGCGUCAACGUUCUGAACUAUGACACGCAAAACGCGUGCUCCGUUUAAUGGAGUUUAUCAUG [A28U G58A C95U C105G G136U] the figure was at most -4.2.
Turning to GGAUCUUCUCGAUCUAACAAAAAAGACUAAUCUGCCACAAAGCUUGAGAGCAUCUUCUGAUGCAGAGGCGGCAGCCUUCGGUGGCGCGAUUGCGCCAACGUUUGCAACUAUGACACGCAAUACGCGUGCUCCGUUGAAUGCAGUUUAUCAUG [A28U G58U A91U C103U U104G A121U G141C], the “polymerase ribozyme fitness (log ratio)” value is at most -4.2.
In the case of GGAUCUUCUCGAUCUAACAAAAAAGACACAUCUGCCACAAAGCUUGAGUGCCUAUUCGGAUGCAGAGGCGGCAGCCUUCGGUGGCGCGCUAGCGCCAACGUUCUCAACUAUGACACGCAAAAAGCGUGCUCCGUGGAAUCGAGUUUAUCAUG [A29C A49U A52C C54A A89C C123A U135G G140C], the “polymerase ribozyme fitness (log ratio)” value is at most -4.2.
For GGAUCUUCUCGAUCUAACAAAAAAGACACAUCUGCCACAAAGCUUGGGACCAUUUUCGGAUGCAGAGGCGGCAGCCUUCGGUGGCGCGAUAGCGUCAACGUUCUCAACUAUGACACGCAAAACGCAUGCUCCGUUGAAUGGUGUUUAUCAUG [A29C A47G G50C C54U C95U G126A A142U] the value was at most -4.2; for GGAUCUUCUCGAUCUAACAAAAAAGACACAUCUGCCACAAAGCUUGAGUCCAUCUUCGGAUGCAGAGGCGGCAGCCUUCGGUGGCGCGAUAGCGCCAACGUUCUCAACUAUGACACGCUAAACGCGUGCUCCGUUGAAUGGAGUUUAUCAUG [A29C A49U G50C A119U], at most -4.2.
With GGAUCUUCUCGAUCUAACAAAAAAGACUAAUCUGCCACAAAGCUUGAGAGCAUCUUCGGAUGCAGAGGCGGCAGCCUUCGGUGGCUCGAUAGCGCCAACGUUCUCAACUAUGACACGCAAAACGCGUGCUCGGUUGAAUGGAGUUUUUCAUG [A28U G86U C132G A147U] the figure was at most -4.2; with GGAUCUUCUCGAUCUAACAAAAAAGACUAAUCUGCCACAAAGCUUGAGAGCAUCUUCGGAUGCAGAGGCGGCAGCCUUCGGUGGCGCGAUAGCGCCAACGUUCACAACUAUGACACGCAAAACGCGUGCUCCGUUGAAUGGAGUUUAUCAUG [A28U U104A], at most -4.2.
For GGAUCUUCUCGAUCUAACAAAAAAGACUAAUCUGCCACAAAGCUUGAGAGCAGCUUCGGAUGCAGGGGAGGCAGCCUUGGGUGGCGCGAUAGCCCCAACGUUCUCAAGUAUGACACGCAAAACGCGUGUUCCGUUGUAUGGAGUUUAUCAUG [A28U U53G A66G C69A C79G G94C C108G C129U A137U] the value was at most -4.2; for GGAUCUUCUCGAUCUAACAAAAAAGACUAAUCUGCCACAAAGCUUGAGACCAUCUUCGGAUGCAGCGGCGGCAGCCUUCGGUGGCUCGAUAGCGCCAACGUUCUCUACUAUGACACGCAAAACGCGUGCUCCGUUGAAUGGAGUUUAUCAUG [A28U G50C A66C G86U A106U], at most -4.2.
